The whole screen tested about 360,000 compounds, of which about 16,000 (4.4%) were called active. Inconclusive means that the source gave no clear call. Such entries were picked first, then a sample of the others. Calls come from the whole dose curve; as a rule, active = well fitted inhibition curve with a large enough effect; inconclusive = small, poorly fitted or top-dose-only effect; inactive = no such curve, though single readings can be large or run the other way. Potencies beside an inconclusive call are fits to weak or partial responses and may not hold up.
molecular target: Bromodomain adjacent to zinc finger domain protein 2B (Homo sapiens) (UniProt Q9UIF8); assay: qHTS Assay for Inhibitors of BAZ2B; conditions: AlphaScreen BAZ2B-H3K14Ac peptide displacement; activity change, negative = inhibition: at 114 µM (top of the series) unless noted; note: nearly all actives have a fitted effect of over 60% in size
Sequence of UniProt Q9UIF8 (Q9UIF8 whole entry, looked up, the tested form may be a part): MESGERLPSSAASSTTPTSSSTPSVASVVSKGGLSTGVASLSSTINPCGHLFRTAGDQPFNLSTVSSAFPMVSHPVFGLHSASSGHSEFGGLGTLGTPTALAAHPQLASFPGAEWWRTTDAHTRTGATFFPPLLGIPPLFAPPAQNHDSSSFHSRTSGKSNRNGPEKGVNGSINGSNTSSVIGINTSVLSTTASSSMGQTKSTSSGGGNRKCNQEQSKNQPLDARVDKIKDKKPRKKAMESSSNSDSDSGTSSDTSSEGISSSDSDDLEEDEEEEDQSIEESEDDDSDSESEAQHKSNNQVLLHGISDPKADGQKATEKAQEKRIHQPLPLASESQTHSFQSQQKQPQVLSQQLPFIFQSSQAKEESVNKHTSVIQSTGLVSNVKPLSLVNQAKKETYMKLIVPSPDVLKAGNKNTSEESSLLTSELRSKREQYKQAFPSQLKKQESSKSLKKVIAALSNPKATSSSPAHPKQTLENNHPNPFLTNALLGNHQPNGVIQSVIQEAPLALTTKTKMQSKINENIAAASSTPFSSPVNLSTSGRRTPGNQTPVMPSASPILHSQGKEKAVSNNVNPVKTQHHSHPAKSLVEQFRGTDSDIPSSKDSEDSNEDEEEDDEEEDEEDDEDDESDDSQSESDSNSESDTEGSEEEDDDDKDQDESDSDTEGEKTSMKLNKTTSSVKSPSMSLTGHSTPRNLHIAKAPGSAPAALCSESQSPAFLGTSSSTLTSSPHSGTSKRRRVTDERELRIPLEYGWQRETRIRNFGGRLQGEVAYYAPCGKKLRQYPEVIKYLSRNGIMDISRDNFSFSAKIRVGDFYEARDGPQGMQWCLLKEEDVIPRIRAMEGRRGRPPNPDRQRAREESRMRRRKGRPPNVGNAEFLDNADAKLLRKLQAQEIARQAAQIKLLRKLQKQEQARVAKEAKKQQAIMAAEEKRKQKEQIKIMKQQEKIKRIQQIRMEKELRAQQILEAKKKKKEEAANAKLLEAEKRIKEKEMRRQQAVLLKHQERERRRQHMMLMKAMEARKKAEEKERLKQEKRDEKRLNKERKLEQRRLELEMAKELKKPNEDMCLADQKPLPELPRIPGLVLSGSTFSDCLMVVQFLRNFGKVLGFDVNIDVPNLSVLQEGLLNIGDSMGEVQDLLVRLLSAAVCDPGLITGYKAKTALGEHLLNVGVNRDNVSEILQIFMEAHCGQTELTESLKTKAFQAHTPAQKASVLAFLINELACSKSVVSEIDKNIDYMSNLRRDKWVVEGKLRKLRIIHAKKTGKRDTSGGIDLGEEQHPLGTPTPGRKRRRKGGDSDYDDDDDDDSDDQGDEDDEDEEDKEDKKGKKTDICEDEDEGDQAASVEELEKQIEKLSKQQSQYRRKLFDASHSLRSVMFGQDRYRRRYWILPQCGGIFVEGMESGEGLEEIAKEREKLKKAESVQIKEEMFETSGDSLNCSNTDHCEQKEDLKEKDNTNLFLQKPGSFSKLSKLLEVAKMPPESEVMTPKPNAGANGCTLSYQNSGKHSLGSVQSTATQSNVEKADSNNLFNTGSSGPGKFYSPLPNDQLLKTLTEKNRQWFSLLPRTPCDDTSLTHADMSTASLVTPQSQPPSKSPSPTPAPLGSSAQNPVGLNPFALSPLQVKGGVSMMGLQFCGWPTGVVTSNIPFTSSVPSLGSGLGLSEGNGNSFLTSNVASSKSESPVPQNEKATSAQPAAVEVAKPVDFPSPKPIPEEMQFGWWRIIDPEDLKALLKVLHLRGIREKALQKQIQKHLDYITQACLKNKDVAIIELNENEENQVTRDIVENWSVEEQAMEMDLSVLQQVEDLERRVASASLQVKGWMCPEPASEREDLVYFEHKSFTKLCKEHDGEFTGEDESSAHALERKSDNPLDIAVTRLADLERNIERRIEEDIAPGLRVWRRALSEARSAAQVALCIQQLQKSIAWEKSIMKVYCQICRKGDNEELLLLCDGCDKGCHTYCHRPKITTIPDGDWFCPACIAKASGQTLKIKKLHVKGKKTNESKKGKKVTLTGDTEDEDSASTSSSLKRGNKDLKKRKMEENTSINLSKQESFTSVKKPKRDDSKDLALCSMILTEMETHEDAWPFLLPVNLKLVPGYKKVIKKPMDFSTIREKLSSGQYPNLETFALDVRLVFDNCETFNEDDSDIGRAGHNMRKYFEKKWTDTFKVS
Outline: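 BAZ2B 50 nM plus b-H3(5-23)K14Ac 50 nM, PBS pH 7.4/0.01% Tween-20, 30 min RT; compound added (max 110 uM), 30 min RT; streptavidin donor/Ni-chelate acceptor beads 10 ug/mL final, 20 min dark; AlphaScreen read.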
% is set by controls: 0 for no effect and ±100 for the full control effect; potency is the fitted concentration of half-maximal effect; tags give direction and shape of the fitted curve.

Q: For `Cc1nnc(N/N=C/c2ccc(-c3ccccc3F)o2)n1N`, which “activity change, negative = inhibition” value is on record?
A: Its value is inactive: -1.35%.

Q: How did the Potency turn out when `O=S1(=O)N=C(N(CCO)/N=C/c2ccc(Cl)cc2)c2ccccc21` was run?
A: Its Potency is inconclusive: 89.1 µM [inhibitor, single point].

Q: How did the Potency turn out when `CCc1ccc2c(c1)CCCN2C(=O)c1ccccc1C(=O)O` was run?
A: Its Potency is active: 56.2 µM.

Q: With `COC(=O)c1c(C)[nH]c(/C=N/Nc2ccccc2)c1C` as the compound, how does the Potency read?
A: The Potency was inconclusive: 79.4 µM [inhibitor, partial curve].

Q: How did the Potency turn out when `C/C(CC(=O)Nc1ccc2c(c1)OCCO2)=N\NC(=O)COc1ccc(Cl)c(C)c1` was run?
A: The Potency was inconclusive: 22.4 µM [inhibitor, full curve].

Q: For `Cc1ccc(-n2c(C)cc(C(=O)COC(=O)c3ccc[nH]c3=O)c2C)cc1`, which Potency is on record?
A: Its Potency is inconclusive: 89.1 µM [inhibitor, single point].

Q: For `Cc1ccc(C2C3CN(C(C)C)CC=C3C(C#N)=C(N)C2(C#N)C#N)cc1` (configuration not stated), which Potency is on record?
A: Its Potency is inconclusive: 50.1 µM [inhibitor, partial curve].

Q: Which Potency does the source give for `CCOc1ccc(/C=N/NC(=O)CN2CCCCCCC2)cc1` here?
A: The Potency was active: 50.1 µM.

Q: `O=C(CN1C(=O)COc2ccc(S(=O)(=O)N3CCCCCC3)cc21)N1CCN(c2cccc(C(F)(F)F)c2)CC1` was tested. Which Potency did it give?
A: Its Potency is inconclusive: 79.4 µM [inhibitor, single point].

Q: For `NS(=O)(=O)c1ccc(N/N=C/c2ccc(O)c(O)c2O)c([N+](=O)[O-])c1`, which Potency is on record?
A: Its Potency is active: 35.5 µM.

Q: With `COCc1cc(CN(C)C(=O)c2oc3c(F)cccc3c2C)[nH]n1` as the compound, how does the “activity change, negative = inhibition” value read?
A: Its value is inactive: -20.8%.

Q: Which Potency does the source give for `COc1ccc(CCNC(=O)CCc2cn(Cc3ccc(C)cc3)c3ccccc23)c(OC)c1OC` here?
A: The Potency was inconclusive: 35.5 µM [inhibitor, full curve].

Q: How did the Potency turn out when `CC(C)c1ccc(-n2cccc2/C=C2/C(=N)N3C=CSC3=NC2=O)cc1` was run?
A: The Potency was inconclusive: 31.6 µM [inhibitor, partial curve].

Q: With `COc1ccc(S(=O)(=O)c2c(O)c3ccc(C(=O)Nc4ccc(F)cc4F)cc3[nH]c2=O)cc1` as the compound, how does the Potency read?
A: The Potency was inconclusive: 31.6 µM [inhibitor, single point].

Q: How did the Potency turn out when `CC1CCCC(C)N1CCCNC(=O)Cn1ncc2c([nH]c3ccccc32)c1=O` (configuration not stated) was run?
A: Its Potency is inconclusive: 79.4 µM [inhibitor, single point].

Q: With `O=C(O)c1ccc(NC(=O)c2ccco2)c(NC(=O)c2ccco2)c1` as the compound, how does the “activity change, negative = inhibition” value read?
A: Its value is inactive: 1.34%.

Q: How did the “activity change, negative = inhibition” value turn out when `CC(C)CC(=O)N1CCN(C(=O)c2ccc(-c3ccccc3)cc2)CC1` was run?
A: The value was inactive: 2.94%.

Q: For `O=C(NCC(c1ccco1)N1CCCC1)c1cccc(NS(=O)(=O)c2ccc(Br)cc2)c1` (configuration not stated), which Potency is on record?
A: The Potency was inconclusive: 89.1 µM [inhibitor, single point].

Q: `CCN(C(=S)Nc1cc(S(=O)(=O)N2CCOCC2)ccc1Cl)c1cccc2ccccc12` was tested. Which Potency did it give?
A: The Potency was inconclusive: 31.6 µM [inhibitor, partial curve].

Q: Which Potency does the source give for `Cc1ccc(-c2cc3nccc(-c4cc([N+](=O)[O-])ccc4O)n3n2)cc1` here?
A: The Potency was inconclusive: 89.1 µM [inhibitor, single point].

Q: For `COc1cc(-c2noc(-c3ccc(NC4CCCC4)c([N+](=O)[O-])c3)n2)cc(OC)c1OC`, which “activity change, negative = inhibition” value is on record?
A: Its value is inactive: -3.17%.

Q: For `COc1ccc(/C=C/C(=O)Nc2cc(S(=O)(=O)N3CCOCC3)ccc2N2CCCC2)cc1OC`, which Potency is on record?
A: Its Potency is inconclusive: 89.1 µM [inhibitor, single point].

Q: For `CCCCn1c(N)c(N(CC(C)C)C(=O)CCC2CCCCC2)c(=O)[nH]c1=O`, which “activity change, negative = inhibition” value is on record?
A: The value was inactive: 12.9%.

Q: `CCc1ccc(C(=O)N2CCN(S(=O)(=O)c3sc(C(=O)O)c(C)c3C(=O)O)CC2)cc1` was tested. Which Potency did it give?
A: Its Potency is inconclusive: 89.1 µM [inhibitor, single point].

Q: `COC(=O)c1ccc(CSc2nnc(-c3c[nH]c4ccccc34)n2-c2ccccc2)cc1` was tested. Which Potency did it give?
A: Its Potency is inconclusive: 89.1 µM [inhibitor, single point].

Q: Which Potency does the source give for `COc1ccc(-c2nc(CN3CCCCC3c3nccn3C)c(C)o2)c(C)c1C` (configuration not stated) here?
A: Its Potency is inconclusive: 50.1 µM [inhibitor, partial curve].

Q: Which Potency does the source give for `COc1ccc(NC(=S)NCCc2ccc(F)cc2)c(OC)c1` here?
A: The Potency was inconclusive: 89.1 µM [inhibitor, single point].

Q: `COc1ccc(C2C(C(=O)Nc3cccnc3)=C(C)Nc3nc(SCc4ccccc4)nn32)cc1` (configuration not stated) was tested. Which Potency did it give?
A: The Potency was inconclusive: 89.1 µM [inhibitor, single point].

Q: For `O=C(Nc1ccc(N2CCN(C(=O)c3ccccc3F)CC2)cc1)c1cncc(Br)c1`, which Potency is on record?
A: The Potency was inconclusive: 70.8 µM [inhibitor, single point].

Q: `Cc1ccc(C)c(N(C(=O)c2ccco2)C(C(=O)NC2CCCC2)c2ccco2)c1` (configuration not stated) was tested. Which “activity change, negative = inhibition” value did it give?
A: Its value is inactive: -8.04%.

Q: Which Potency does the source give for `Cc1cc(C(=O)C(C)OC(=O)c2ccc(NC(=O)CC#N)cc2)c(C)n1-c1ccccc1` (configuration not stated) here?
A: Its Potency is inconclusive: 50.1 µM [inhibitor, partial curve].

Q: With `CCOC(=O)c1cc(S(=O)(=O)Nc2c(C)cc(C)cc2C)[nH]n1` as the compound, how does the Potency read?
A: The Potency was inconclusive: 89.1 µM [inhibitor, single point].

Q: With `CCOc1ccccc1NC(=O)CC1(CC(=O)N2CCOCC2)CCCC1` as the compound, how does the Potency read?
A: The Potency was inconclusive: 89.1 µM [inhibitor, single point].

Q: Which Potency does the source give for `COc1ccc(C(=O)OC(C)CN2CCN(C)CC2)cc1OC` (configuration not stated) here?
A: Its Potency is inconclusive: 89.1 µM [inhibitor, single point].

Q: For `O=C(Nc1ccccc1Br)c1cc(S(=O)(=O)NC2CCCCC2)ccc1F`, which “activity change, negative = inhibition” value is on record?
A: Its value is inactive: 12.6%.

Q: With `C=CCc1cccc2cc(C(=O)Nc3ccc(S(=O)(=O)Nc4nnc(CC)s4)cc3)c(=O)oc12` as the compound, how does the Potency read?
A: Its Potency is active: 22.4 µM.

Q: For `O=c1oc2ccccc2c(O)c1C=NCc1ccccn1`, which Potency is on record?
A: Its Potency is inconclusive: 89.1 µM [inhibitor, single point].

Q: With `C/C(=N\Nc1ccc(C(=O)c2c(C)cc3ccccn23)cc1[N+](=O)[O-])c1ccc(O)cc1` as the compound, how does the Potency read?
A: Its Potency is inconclusive: 1.78 µM [inhibitor, full curve, poor fit].

Q: How did the Potency turn out when `CCOC(=O)c1c(CN2CCN(c3ccccc3)CC2)oc2cc(Br)c(O)cc12` was run?
A: Its Potency is inconclusive: 31.6 µM [inhibitor, partial curve].

Q: How did the Potency turn out when `COCCN=c1scc(-c2cc(OC)c(OC)c(OC)c2)n1/N=C/c1c(C)[nH]c2ccccc12` was run?
A: The Potency was active: 11.2 µM.

Q: Which “activity change, negative = inhibition” value does the source give for `O=C(CSc1nc2ccc(Cl)cc2[nH]1)Nc1ccc2[nH]c(=O)[nH]c2c1` here?
A: The value was inactive: 3.28%.

Q: How did the Potency turn out when `Cc1ccc(CN2CCN(/N=C/c3ccc(N(C)C)cc3)CC2)cc1` was run?
A: Its Potency is inconclusive: 3.55 µM [inhibitor, full curve].

Q: `Nc1ccc(-c2nc3c(Cl)cc(N)cc3[nH]2)cc1` was tested. Which Potency did it give?
A: The Potency was inconclusive: 44.7 µM [inhibitor, partial curve].

Q: With `COc1ccc(N2CCN(CC(O)COc3cc(C)cc(C)c3)CC2)cc1` (configuration not stated) as the compound, how does the Potency read?
A: Its Potency is active: 39.8 µM.

Q: `COc1ccccc1CN1C[C@@H]2C[C@@H](c3[nH]c4c(C)cccc4c3C)N3CCC[C@@]23C1=O` was tested. Which Potency did it give?
A: The Potency was inconclusive: 39.8 µM [inhibitor, partial curve].

Q: `COC(=O)c1ccccc1NC(=O)COC(=O)c1ccco1` was tested. Which Potency did it give?
A: The Potency was active: 50.1 µM.

Q: Which Potency does the source give for `CN(C)CCCN(C(=O)c1ccc(S(=O)(=O)N(C)C2CCCCC2)cc1)c1nc2ccc(Br)cc2s1` here?
A: Its Potency is inconclusive: 35.5 µM [inhibitor, partial curve].

Q: With `O=C1CC(=O)Nc2cc(S(=O)(=O)N3CCN(c4ccc([N+](=O)[O-])cc4)CC3)ccc2N1` as the compound, how does the Potency read?
A: The Potency was active: 50.1 µM.

Q: For `COc1ccc(-c2nc3sc(CCNC(=O)C(=O)Nc4ccc(C)c(C)c4)c(C)n3n2)cc1`, which “activity change, negative = inhibition” value is on record?
A: The value was inactive: -13.9%.

Q: Which Potency does the source give for `COC1(OC)C(=N/O)/C(=N\O)CCC1O` (configuration not stated) here?
A: Its Potency is inconclusive: 89.1 µM [inhibitor, single point].

Q: For `Cc1cccc(N2C(=O)c3ccc(Br)cc3C2=O)n1`, which Potency is on record?
A: Its Potency is inconclusive: 89.1 µM [inhibitor, single point].

Q: Which Potency does the source give for `Cc1sc(NC(=O)CSc2nnnn2C2CCCCC2)c(C#N)c1C` here?
A: The Potency was inconclusive: 31.6 µM [inhibitor, partial curve, poor fit].

Q: Which Potency does the source give for `COc1ccc(-c2sc3cc(OC)c(OC)cc3c2C#CC2(O)CCCCC2)cc1` here?
A: Its Potency is active: 79.4 µM.

Q: With `COc1ccc2c(c1)C(=O)c1ccccc1CO2` as the compound, how does the “activity change, negative = inhibition” value read?
A: Its value is inactive: 109%.

Q: Which “activity change, negative = inhibition” value does the source give for `Cc1ccccc1N1CCN(C(=O)CCN2C(=O)c3ccccc3C2=O)CC1` here?
A: The value was inactive: -0.657%.

Q: With `CC1CCN(c2ccc3nnc(CCC(=O)Nc4cccc(F)c4)n3n2)CC1` as the compound, how does the “activity change, negative = inhibition” value read?
A: The value was inactive: -14.2%.

Q: How did the Potency turn out when `CC1=C(C(=O)N2CCN(c3ccc(Cl)cc3)CC2)C2(CCC(C)CC2)OC1=O` (configuration not stated) was run?
A: Its Potency is inconclusive: 17.8 µM [inhibitor, full curve].

Q: For `O=C(/C=C/c1ccco1)Nc1sc2c(c1C(=O)O)CCC2`, which Potency is on record?
A: The Potency was inconclusive: 89.1 µM [inhibitor, single point].

Q: Which Potency does the source give for `Cc1c(Cl)cccc1-c1ccc(/C=N/n2cnnc2)o1` here?
A: The Potency was inconclusive: 79.4 µM [inhibitor, single point].

Q: Which Potency does the source give for `N#CC(c1ccc(Cl)cc1)c1ccc2c(C(F)(F)F)cc(C(F)(F)F)nc2n1` (configuration not stated) here?
A: Its Potency is active: 31.6 µM.

Q: For `COc1ccc(Cl)cc1Nc1nc(-c2sc(NC(=O)CC(C)C)nc2C)cs1`, which Potency is on record?
A: The Potency was inconclusive: 44.7 µM [inhibitor, partial curve].

Q: For `CCN(CC)S(=O)(=O)c1cccc(N=NC2=C(O)CCCC2=O)c1`, which Potency is on record?
A: The Potency was inconclusive: 70.8 µM [inhibitor, single point].

Q: Which “activity change, negative = inhibition” value does the source give for `COc1ccc(N2CCN(C(=S)Nc3cc(C)ccc3C)CC2)cc1` here?
A: Its value is inactive: -0.806%.

Q: `CN1C(=O)/C(=C\c2cccc(OCc3ccccc3)c2)SC1=S` was tested. Which Potency did it give?
A: Its Potency is inconclusive: 3.16 µM [inhibitor, full curve, poor fit].

Q: Which Potency does the source give for `CC1(C)CC(N=c2cc(-c3ccccc3)oc3ccc(Cl)cc23)CC(C)(C)N1` here?
A: Its Potency is inconclusive: 35.5 µM [inhibitor, partial curve].

Q: How did the Potency turn out when `C#CCOc1ccc(Cl)cc1/C=C1/C(=O)ON=C1C` was run?
A: Its Potency is inconclusive: 39.8 µM [inhibitor, partial curve].

Q: For `COc1ccc2c(c1)-c1nc(/N=C/c3cccc(OC)c3O)sc1CC2`, which Potency is on record?
A: The Potency was active: 50.1 µM.

Reference: PubChem BioAssay AID504333 (National Center for Advancing Translational Sciences (NCATS), 2011)
